Test results as given in PubChem BioAssay AID1345083 (National Center for Advancing Translational Sciences (NCATS), 2018).
The campaign covered roughly 94,000 compounds. About 6,200 (6.6%) were called active. Inconclusive means that the source gave no clear call. Such entries were picked first, then a sample of the others. Calls follow the shape of the dose curve; as a rule, active = well fitted inhibition curve with a large enough effect; inconclusive = small, poorly fitted or top-dose-only effect; inactive = flat fitted curve, though single readings scatter. Where the call is inconclusive, the potency comes from a doubtful curve fit.

experiment: Cytotoxic Profiling in HEK 293 Cell Line of Diverse Libraries Using Quantitative High-Throughput Screening; conditions: HEK 293 viability, ATP luminescence (CellTiter-Glo), 48-72 h; activity change, negative = cytotoxicity: at 115 µM (top of the series) unless noted; series mostly up to 115 µM; also: nearly all actives have a fitted effect of over 60% in size
Procedure, shortened: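 qHTS cytotoxicity; HEK 293, 250 cells/well; compound pinned; 48 or 72 hr, 37 degree Celsius, 5% CO2, 95% humidity; CellTiter-Glo, 10 min RT; luminescence (ATP).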
% is scaled to controls: 0 for no effect and ±100 for the full control effect; potency is read from the fitted curve at half-maximal effect; tags tell the direction and shape of the fitted curve.

Question: Which Potency does the source give for Cc1nc(C)c(C(=O)N2CCC(Oc3ccc(-c4noc(C5CC5)n4)cc3)C2)s1 (stereo not drawn) here?
Answer: active: 20 µM

Question: Which Potency does the source give for Cc1cc(F)ccc1NC(=O)c1cc(-c2ccc[nH]2)n[nH]1 here?
Answer: inconclusive: 89.1 µM [inhibitor, single point]

Question: With COc1ccc(C(C(=O)O)N2CCN(c3ccc(F)cc3)CC2)c(OC)n1 (stereo not drawn) as the compound, how does the “activity change, negative = cytotoxicity” value read?
Answer: inactive: 3.31%

Question: With COc1ccc(CC(=O)N2CCCC(c3nn(-c4ccccn4)c(=O)[nH]3)C2)cc1 (stereo not drawn) as the compound, how does the “activity change, negative = cytotoxicity” value read?
Answer: inactive: -2.67%

Question: Which “activity change, negative = cytotoxicity” value does the source give for COC(=O)COCC(=O)N1Cc2[nH]cnc2C[C@H]1c1nc(-c2ccc(F)c(Cl)c2)no1 here?
Answer: inactive: -18.5%

Question: With COc1ccc(CCNC(=O)CC(c2cccc(F)c2)c2cn(C)c3ccccc23)cc1OC (stereo not drawn) as the compound, how does the Potency read?
Answer: active: 20 µM

Question: With Cc1ccccc1OCc1nc(C2CN(C(=O)c3ccc4nc[nH]c4c3)C2)no1 as the compound, how does the Potency read?
Answer: inconclusive: 44.7 µM [inhibitor, partial curve]

Question: For Cc1ccc(-c2ccccc2CN)cc1Cl, which Potency is on record?
Answer: active: 35.5 µM

Question: For Cc1nnc2ccc(N3CCC(NC(=O)Nc4ccc(Cl)cc4)C3)nn12 (stereo not drawn), which Potency is on record?
Answer: inconclusive: 89.1 µM [inhibitor, partial curve, poor fit]

Question: Which Potency does the source give for O=C(Cc1cccc(F)c1)N1CCC2(CC1)NC(=O)N(Cc1ccccc1Cl)C2=O here?
Answer: inconclusive: 79.4 µM [inhibitor, partial curve, poor fit]

Question: For O=C(CCCc1ccccc1)N1CCC2(CC1)CC(CO)N(C(=O)c1ccccc1)C2 (stereo not drawn), which Potency is on record?
Answer: inconclusive: 89.1 µM [inhibitor, single point]

Question: Which Potency does the source give for O=C(NCc1ccccc1F)C1CCCN(Cc2cccc(-c3cccs3)c2)C1 (stereo not drawn) here?
Answer: active: 44.7 µM

Question: For O=C(CCC1CCCCC1)NC1CCN(c2ccc(=O)n(CC3CC3)n2)CC1, which Potency is on record?
Answer: inconclusive: 50.1 µM [inhibitor, partial curve, poor fit]

Question: For Cc1ncc2n1C(=O)N(C1CCN(C(=O)c3ccc(Cl)cc3)CC1)C2, which Potency is on record?
Answer: inconclusive: 79.4 µM [inhibitor, partial curve, poor fit]

Question: Which Potency does the source give for O=C(N[C@H]1CCN2C(=O)c3cc(-c4cccc(C(F)(F)F)c4)ccc3NC(=O)[C@@H]2C1)c1cnccn1 here?
Answer: inconclusive: 56.2 µM [inhibitor, partial curve, poor fit]

Question: With O=S(=O)(c1cccc2ccccc12)N1CCCC(CO)(Cc2cccc(Cl)c2)C1 (stereo not drawn) as the compound, how does the Potency read?
Answer: inconclusive: 20 µM [inhibitor, full curve, poor fit]

Question: For CN1C(=O)c2cccn2CC1CNC(=O)c1ccccc1F (stereo not drawn), which “outcome” value is on record?
Answer: inactive

Question: Which Potency does the source give for COc1c(C)cccc1C(=O)N1CCC2(CC1)Nc1ccccc1NC2=O here?
Answer: inconclusive: 56.2 µM [inhibitor, partial curve, poor fit]

Question: Which “outcome” value does the source give for Cc1cnc(CCNC(=O)c2cn(C)cn2)n1C1CC1 here?
Answer: inactive

Question: With Cn1ccnc1CN1C(=O)CO[C@H]2CN(Cc3c[nH]c4ccccc34)C[C@H]21 as the compound, how does the Potency read?
Answer: inconclusive: 112 µM [inhibitor, partial curve, poor fit]

Question: For O=S(=O)(c1ccc2c(c1)CCC2)N1CCC(Cc2nc(-c3ccncc3)n[nH]2)C1 (stereo not drawn), which Potency is on record?
Answer: inconclusive: 44.7 µM [inhibitor, partial curve, poor fit]

Question: With COc1ccc(-c2noc(CC3CCN(C(=O)c4ccc(OC)c(OC)c4)CC3)n2)cc1 as the compound, how does the Potency read?
Answer: inconclusive: 10 µM [inhibitor, full curve, poor fit]

Question: With COc1ccccc1-c1cccc(CN2CCC(NC(=O)Nc3ccccc3)CC2)c1 as the compound, how does the Potency read?
Answer: active: 22.4 µM

Question: With COc1ccccc1CC(=O)N1CCC[C@H]1c1nc(-c2ccccc2Cl)no1 as the compound, how does the Potency read?
Answer: inconclusive: 100 µM [inhibitor, single point]

Question: With O=C(C1CCCC1)N1CC2(CCCN(Cc3c[nH]c4ccccc34)C2)Cc2ccccc21 (stereo not drawn) as the compound, how does the Potency read?
Answer: active: 22.4 µM

Question: For CN1CC2(CCCN(CC3CC3)C2)c2cc(C(=O)NCCOc3ccccc3)ccc21 (stereo not drawn), which Potency is on record?
Answer: active: 100 µM

Question: Which Potency does the source give for COc1ccccc1Nc1ccnc(N2CCC(NC(=O)NC3CCCC3)CC2)n1 here?
Answer: inconclusive: 79.4 µM [inhibitor, partial curve, poor fit]

Question: With C=CCOCC(O)CN1CCC(=O)N(Cc2ccccc2)Cc2cc(OC)ccc21 (stereo not drawn) as the compound, how does the Potency read?
Answer: inconclusive: 89.1 µM [inhibitor, single point]

Question: Which “activity change, negative = cytotoxicity” value does the source give for O=C(CCc1ccccc1)N1CC2CC(C1)[C@H]1CCCC(=O)N1C2 (stereo partly drawn) here?
Answer: inactive: -9.76%

Question: For Cc1nc2cnccn2c1C(=O)NCC1CC1, which “activity change, negative = cytotoxicity” value is on record?
Answer: inactive: 0.402% [at 172 µM]

Question: Which “outcome” value does the source give for CN(Cc1nc(-c2ccncc2)no1)C(=O)C1CNCCO1 (stereo not drawn) here?
Answer: inactive

Question: Which “activity change, negative = cytotoxicity” value does the source give for O=C(Cn1nc2c(cc1=O)CCCC2)NCCc1ccco1 here?
Answer: inactive: 4.42%

Question: For COC(=O)C1CCCN1C(=O)c1c(C)oc2c1CN(Cc1ccc(C)cc1)CC2 (stereo not drawn), which Potency is on record?
Answer: inconclusive: 50.1 µM [inhibitor, partial curve, poor fit]

Question: Which Potency does the source give for O=C(Nc1ccccc1)N1CCC(c2nn(-c3ccc(Cl)cc3)c(=O)[nH]2)CC1 here?
Answer: inconclusive: 89.1 µM [inhibitor, single point]

Question: For C=CCNC(=O)c1cccn2nccc12, which “activity change, negative = cytotoxicity” value is on record?
Answer: inactive: -24.4% [at 230 µM]

Question: With Cc1oc(-c2cccc(Oc3ccccc3)c2)nc1CN1CC[C@H](N(C)C)C1 as the compound, how does the Potency read?
Answer: inconclusive: 25.1 µM [inhibitor, full curve, poor fit]

Question: For COc1cccc(C(=O)N2CCC3(CC2)NC(=O)N(c2ccccc2)N3)c1, which Potency is on record?
Answer: inconclusive: 28.2 µM [inhibitor, full curve]

Question: Which Potency does the source give for Cc1ccccc1S(=O)(=O)N1C[C@@H]2CCCN3CCC[C@@H]([C@H]23)[C@H]1CCCC(=O)NCC1CC1 here?
Answer: inconclusive: 89.1 µM [inhibitor, single point]

Question: For Cn1cc(CN2CCN(c3cnccn3)CC2)c(-c2ccc(C3CCCCC3)cc2)n1, which Potency is on record?
Answer: active: 25.1 µM

Question: Which “activity change, negative = cytotoxicity” value does the source give for COc1cc(F)ccc1CNCc1cccnc1N1CCOCC1 here?
Answer: inactive: 4.34%

Question: Which “outcome” value does the source give for O=C(NCc1ccccn1)c1ccc2nnc(-c3ccoc3)n2c1 here?
Answer: inactive [at 172 µM]

Question: Which “activity change, negative = cytotoxicity” value does the source give for Cc1ccc(-c2ccc3nnc(CNC(=O)c4ccncc4)n3n2)cc1C here?
Answer: inactive: -5.77%

Question: Which Potency does the source give for COc1ccc(NC(=O)[C@@H]2C[C@@H](c3cccc(C(F)(F)F)c3)N(CC3CCOCC3)C2)cc1 here?
Answer: inconclusive: 31.6 µM [inhibitor, full curve]

Question: For O=C(Cc1ccccc1O)NCc1cccnc1Oc1ccc(F)cc1F, which Potency is on record?
Answer: inconclusive: 50.1 µM [inhibitor, partial curve, poor fit]

Question: For CC(C)CC(=O)NCC1Cn2cccc2CN1Cc1ccccc1 (stereo not drawn), which “activity change, negative = cytotoxicity” value is on record?
Answer: inactive: -15.5%

Question: For Cc1noc(-c2ccc(OC3CN(C(=O)NCc4ccc(F)cc4)C3)cc2)n1, which Potency is on record?
Answer: inconclusive: 39.8 µM [inhibitor, partial curve]

Question: For Fc1ccc(OCCc2noc(C3CCCN3)n2)cc1 (stereo not drawn), which Potency is on record?
Answer: inconclusive: 79.4 µM [inhibitor, single point]

Question: Which Potency does the source give for CCCCN(C)C(=O)c1c(C)oc2ccn(Cc3ccc(F)cc3)c(=O)c12 here?
Answer: inconclusive: 79.4 µM [inhibitor, single point]

Question: Which “outcome” value does the source give for COC[C@@H]1CN(Cc2cnn(C)c2C)C[C@H]1c1ccncc1 here?
Answer: inactive

Question: For CCc1nc2c(c(-c3ccc(Cl)cc3)n1)CN([S+](=O)([O-])c1cccs1)CC2, which “activity change, negative = cytotoxicity” value is on record?
Answer: inactive: -18.5%

Question: With COc1ccc(-c2nc(C3CC(=O)N(c4ccc(C)cc4)C3)no2)c(C)c1 (stereo not drawn) as the compound, how does the Potency read?
Answer: inconclusive: 89.1 µM [inhibitor, single point]

Question: Which Potency does the source give for COC(=O)N1CCC(N2C(=O)c3c(c(C)nn3-c3ccccc3)C2C)CC1 (stereo not drawn) here?
Answer: inconclusive: 50.1 µM [inhibitor, partial curve, poor fit]

Question: With CN(C)Cc1cn([C@H]2CO[C@H]3[C@@H]2OC[C@H]3OC(=O)Nc2cccc(C(F)(F)F)c2)nn1 as the compound, how does the Potency read?
Answer: inconclusive: 100 µM [inhibitor, partial curve, poor fit]

Question: For CCc1noc([C@@H]2CC(F)(F)CN2C(=O)c2ccoc2C)n1, which Potency is on record?
Answer: inconclusive: 35.5 µM [inhibitor, partial curve]

Question: Which “outcome” value does the source give for O=C(NCc1ccc2c(c1)OCO2)C1CCCN(c2nc3ncccc3o2)C1 (stereo not drawn) here?
Answer: inactive

Question: Which Potency does the source give for Cc1ccc(CN2C(=O)NC3(CCN(C(=O)c4cccc(Cl)c4)C3)C2=O)cc1 (stereo not drawn) here?
Answer: inconclusive: 50.1 µM [inhibitor, partial curve, poor fit]

Question: With Cc1nc(N2CCCCC2)n(CC(=O)Nc2cccc(C(F)(F)F)c2)c(=O)c1C as the compound, how does the Potency read?
Answer: inconclusive: 35.5 µM [inhibitor, partial curve, poor fit]

Question: With C=CCN1C[C@H]2COc3cc(OC)ccc3[C@H]2N(C(=O)CCCCC)CCC1=O as the compound, how does the “activity change, negative = cytotoxicity” value read?
Answer: inactive: -16.8%

Question: Which Potency does the source give for CCC(C)(C)NC(=O)c1ccc(-c2nnc3ccc(NC(=O)C4CC4)cn23)cc1 here?
Answer: inconclusive: 14.1 µM [inhibitor, full curve, poor fit]

Question: For COc1cccc(S(=O)(=O)N2CCCCCCNC(=O)[C@@H]3CCCC[C@@H]32)c1, which Potency is on record?
Answer: inconclusive: 6.31 µM [inhibitor, full curve]

Question: For Cn1ccnc1CN1CCCC(CCC(=O)Nc2ccccc2F)C1 (stereo not drawn), which “outcome” value is on record?
Answer: inactive

Question: Which Potency does the source give for O=C(COc1ccc(Cl)cc1)N1CCC(c2n[nH]c(=O)n2Cc2ccc(F)cc2)CC1 here?
Answer: inconclusive: 50.1 µM [inhibitor, partial curve, poor fit]

Question: With COc1cccc(-c2ccc(C(=O)N3CCC(N[S+](=O)([O-])c4ccccc4)CC3)cc2)c1 as the compound, how does the Potency read?
Answer: active: 20 µM

Question: For COc1ccc(CC(=O)Nc2ccc3c(c2)CN(CCOc2ccccc2)C(=O)C(C)O3)cc1 (stereo not drawn), which Potency is on record?
Answer: active: 44.7 µM

Question: Which Potency does the source give for O=C(c1ccoc1)N1CCCn2cc(-c3ccccc3F)nc21 here?
Answer: inconclusive: 44.7 µM [inhibitor, partial curve, poor fit]

Question: With O=C(c1ccccc1F)N1CCCC(C(=O)N2CCC(N3CCOCC3=O)CC2)C1 (stereo not drawn) as the compound, how does the “activity change, negative = cytotoxicity” value read?
Answer: inactive: -12.9%

Question: Which Potency does the source give for COc1ccc(CN2CCNc3cc(-c4ccccc4)ncc3C2)cc1O here?
Answer: active: 89.1 µM

Question: Which Potency does the source give for COc1ccc(C(=O)N2CCCCC2c2nc(-c3cccnc3)n[nH]2)c(OC)c1 (stereo not drawn) here?
Answer: inconclusive: 50.1 µM [inhibitor, partial curve, poor fit]
